Reference: patent publication US5008246A, “Novel peptides suppressing the function of the immune system, pharmaceutical compositions containing them and process for preparing same” (Richter Gedeon Vegyeszeti Gyar R. T., priority 1988, dated 1991)
Not every detail of the peptide structures is certain; ends, links or a residue may be inferred. Where a SMILES comes first, the peptide text is derived from it. [ ]: non-standard residue; d: D form.

Tests used:
resting macrophages = assay: Effect on the phagocytating capacity of resting macrophages; assay type: in vivo, male NZB (OLAC-SzKB) mice; conditions: 1 mg/kg s.c. daily for 4 days; count of phagocytated opsonized yeast cells by peritoneal macrophages vs untreated animals
Method: These examinations were carried out on 6 months old male NZB (OLAC-SzKB) mice according to the method described in J. Immunopharmnacol. 4, 265 (1982-1983). The animals were treated daily with a 1 mg/kg subcutaneous (s.c.) dose of the test substances for 4 days. After bleeding the animals, their peritonea were washed with 8 ml of PBS buffer solution (pH 7.2) each containing 10 IU of heparin. The cell suspension washed out from the peritoneum was made free of the erythrocytes by shocking with distilled water, then washed 3 times with PBS buffer solution. The sedimentation between two washings was achieved by centrifuging at 1000 rpm for 5 minutes. Then, the concentration of each cell suspension was adjusted to 10^6 cell/ml and the suspension was settled for 30 minutes in a Boyden-chamber at 37° C. in an atmosphere containing 5% of carbon dioxide. Over the macrophages adhered to the glass wall, opsonized yeast was layered. After removing the non-phagocytated particles, those incorporated by the macrophages were counted in each cell. In Table 3, the percentage of decrease in the count of the phagocytated yeast cells is given in relation to the macrophages isolated from the untreated animals as control.

[1] = system: antibody-producing splenocytes; assay: Effect on the antibody-producing cells (plaque formation, method of Canningham); assay type: in vivo; conditions: newborn Wistar rats, vs untreated animals; for Change in the plaque formation %: 25 μg i.p. within 12 hours following birth, immunized with sheep erythrocyte on 14th day, splenocytes after 7 days; for Change in the count of the plaque-forming cells (in words): 25 μg i.p.
[2] = system: primary antibody production; assay: Effect on the primary antibody production (haemagglutination titre, method of Takatsy); assay type: in vivo, male CFLP (LATI) mice; conditions: 100 mg/kg i.p.; for Effect on the primary antibody production %: mice immunized i.p. with 1% sheep erythrocyte, haemagglutination titre of sera on 3rd day, in relation to untreated animals
contact dermatitis = assay: Inhibition of the contact dermatitis (oxazolone, method of Evans et al.); assay type: in vivo, male BALB/c (LATI) mice; conditions: oxazolone-sensitized mice, 1.0 mg/kg i.p.; ear weight difference after 24 hours vs physiological saline control
Method: These investigations were carried out on male BALB/c (LATI) mice with 20 to 22 g body-weight by using the method of Evans et al. [Br. J. Pharmacol. 43, 403 (1971)]. The abdominal side of the animals were depilated, then the naked abdominal skin of each animal was sensitized by 0.1 ml of the oxazolone solution of 2% in sunflower oil. After 1 week, the mice were i.p. treated with an 1.0 mg/kg dose of the test substance (dissolved in physiological saline solution), then the right ear of the animals was directly treated with 10 μl of an acetone solution containing 2% oxazolone while their left ear was treated with 10 μl of acetone. After 24 hours, their ears were cut off and weighed. The difference between the weight of treated and untreated ears of the animals was compared with the difference observed at the animals treated with the test substance and treated only with physiological saline solution, respectively. The difference in the ear weight was considered to be proportional to the extent of the contact dermatitis, while the value measured at the animals not treated with the test substance was taken as control, the dermatitis-diminishing effect of the test substances was obtained as expressed in percentage shown in Table 4.

Row | Compound | Effect on the phagocytating capacity of resting macrophages % (resting macrophages) [%] | Change in the plaque formation % [1] | Effect on the primary antibody production % [2] | Inhibition of the contact dermatitis % (contact dermatitis) [%] | Change in the count of the plaque-forming cells (in words) [1] | Action on the primary antibody production (in words) ([2]; mice, compared with the suppressing peptides)
1 | CC(C)[C@H](NC(=O)[C@@H](CC(=O)O)NC(=O)[C@H](CCCCN)NC(=O)[C@@H](N)CCCNC(=N)N)C(=O)O [Compound 8, Arg--Lys--D--Asp--Val] (H-RK[dD]V-OH) | -14 |  |  |  |  | 
2 | N=C(N)NCCC[C@@H](N)C(=O)N[C@@H](CCCCN)C(=O)N[C@@H](CC(=O)O)C(=O)O [Compound 5, D--Arg--Lys--Asp] (H-[dR]-Lys-Asp-OH) |  | -44% | -15% | -35 |  | 
3 | N=C(N)NCCC[C@H](N)C(=O)N[C@@H](CCCCN)C(=O)N[C@H](CC(=O)O)C(=O)O [Compound 7, Arg--Lys--D--Asp] (H-Arg-Lys-[dD]-OH) | -21 | -43% |  | -34 |  | 
4 | N=C(N)NCCC[C@H](N)C(=O)N[C@H](CCCCN)C(=O)N[C@@H](CC(=O)O)C(=O)O [Compound 2, Arg--D--Lys--Asp] (H-Arg-[dK]-Asp-OH) | -63 | -11% |  | -22 |  | 
5 | CC(C)[C@H](NC(=O)[C@H](CC(=O)O)NC(=O)[C@H](CCCCN)NC(=O)[C@H](N)CCCNC(=N)N)C(=O)O [Compound 10, D--Arg--Lys--Asp--Val] (H-[dR]KDV-OH) | -25 |  |  |  |  | 
6 | CC(C)[C@@H](NC(=O)[C@H](CC(=O)O)NC(=O)[C@H](CCCCN)NC(=O)[C@@H](N)CCCNC(=N)N)C(=O)O [Compound 9, Arg--Lys--Asp--D--Val] (H-RKD[dV]-OH) |  |  |  | -16 |  | 
7 | CC(C)[C@H](NC(=O)[C@H](CC(=O)O)NC(=O)[C@@H](CCCCN)NC(=O)[C@@H](N)CCCNC(=N)N)C(=O)O [Compound 11, Arg--D-- Lys--Asp--Val] (H-R[dK]DV-OH) | -19 |  | -20% |  |  | 
8 | N=C(N)NCCC[C@@H](N)C(=O)N[C@H](CCCCN)C(=O)N[C@H](CC(=O)O)C(=O)O [Compound 3, D--Arg--D--Lys--D--Asp] (H-[dR]-[dK]-[dD]-OH) |  | -13% |  | -31 |  | 
9 | N=C(N)NCCC[C@@H](N)C(=O)N[C@H](CCCCN)C(=O)N[C@@H](CC(=O)O)C(=O)O [Compound 6, D--Arg--D--Lys--Asp] (H-[dR]-[dK]-Asp-OH) | -11 | -41% |  | -19 |  | 
10 | N=C(N)NCCC[C@@H](N)C(=O)N[C@@H](CCCCN)C(=O)N[C@H](CC(=O)O)C(=O)O [Compound 1, D--Arg--Lys--D--Asp] (H-[dR]-Lys-[dD]-OH) | -41 | -17% |  |  |  | 
11 | CC(C)[C@H](NC(=O)[C@H](CC(=O)O)NC(=O)[C@H](CCCCN)NC(=O)[C@@H](N)CCCNC(=N)N)C(=O)O [B, Arg--Lys--Asp--Val, reference compound] (H-RKDV-OH) |  | +60% | +31% |  | significantly increased | opposite action
12 | N=C(N)NCCC[C@H](N)C(=O)N[C@@H](CCCCN)C(=O)N[C@@H](CC(=O)O)C(=O)O [A, Arg--Lys--Asp, reference compound] (H-Arg-Lys-Asp-OH) |  | +71% |  |  | significantly increased | 
13 | N=C(N)NCCC[C@H](N)C(=O)N[C@H](CCCCN)C(=O)N[C@H](CC(=O)O)C(=O)O [Compound 4, Arg--D--Lys--D--Asp] (H-Arg-[dK]-[dD]-OH) |  | -16% | -15% | -19 |  | 
